# The other results are listed elsewhere or left out.
# B1: CvGal1 (Crassostrea virginica), A7Y0I5 (protein)
# chain: MTYQISKISQPFTSYIPNGLHIGKHLLLRGRVSYGTEAFAINLQQNPEPCNGEVAFHFNPRPGEQQCVRNSFDGGSWMDEERDQPHFPFDEGRSFTLRIEVAEEGFRTYVNGKPYVNFSHRLDLGNVHYLYLTEGAEFYDISYQDRYTLPYKSEIPQQMNVGKAVRIRGASQDNDGFSVNFACDPDNENCAFHFNPRPNEGVVVRNANLGGWGDEERDYEAEFPFHPYNYFDAMFICTDDKYLVHVNDKYFTEFNHRGGVDASSFFNIVGNLDIQDVEYFEPLEDDFVKTIPSGLVKGDVLIFRGFMKPGGDTFSINFMNGYSVEDDIAFHLNPRVGEGQVVMNCCMGGAWGDEEREDIPSPLADREPFEVKVVVKKNKFKVYVNGKKCMKFAARGNLEDIKGVNIKGEAYVYEVKLERKLEDSWEYLPGGFRVGGWVVVQAIPKKGSEGFAINFRTGSDEDSDIAFHFNPRLQENCTIRNSCAGGAWGGEERDQPDFPFEKKDTCEIAIQAQPDRFVTYVNGKRYIEFNHRLPLESITCVELTGRADFFEPKFF
# Legend:
# Experiment in all cases: glycan array binding signal (z-score within array); higher = stronger binding
# Details in all cases: glycan notation: IUPAC condensed, linker removed
# Gal(a1-4)Gal(b1-4)GlcNAc = target: Gal(a1-4)Gal(b1-4)GlcNAc
# Summary of the method: (§1)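 Columns mapping to the same glycan were averaged after glycan names were converted to IUPAC-condensed notation. The data come from 3228 arrays in the Consortium for Functional Glycomics database, limited to those with an available protein sequence. Binding is reported as a within-array Z-score averaged across arrays of one protein sequence and across linkers.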
# [1] = target: Gal(a1-4)Gal(b1-4)GlcNAc(b1-2)Man(a1-3)[Gal(a1-4)Gal(b1-4)GlcNAc(b1-2)Man(a1-6)]Man(b1-4)GlcNAc(b1-4)GlcNAc
# Summary of the method: as §1
# [2] = target: Gal(a1-4)Gal(b1-4)GlcNAc(b1-3)Gal(b1-4)Glc
# Summary of the method: as §1
# Gal(a1-4)GlcNAc = target: Gal(a1-4)GlcNAc
# Summary of the method: as §1
# Gal(a1-6)Glc = target: Gal(a1-6)Glc
# Summary of the method: as §1
# Gal(b1-2)Gal = target: Gal(b1-2)Gal
# Summary of the method: as §1
# Gal(b1-3)Gal = target: Gal(b1-3)Gal
# Summary of the method: as §1
# Gal(b1-3)Gal(b1-4)GlcNAc = target: Gal(b1-3)Gal(b1-4)GlcNAc
# Summary of the method: as §1
# [3] = target: Gal(b1-3)Gal(b1-4)GlcNAc(b1-2)Man(a1-3)[Gal(b1-3)Gal(b1-4)GlcNAc(b1-2)Man(a1-6)]Man(b1-4)GlcNAc(b1-4)GlcNAc
# Summary of the method: as §1
# Gal(b1-3)GalNAc = target: Gal(b1-3)GalNAc
# Summary of the method: as §1
# [4] = target: Gal(b1-3)GalNAc(a1-3)[Fuc(a1-2)]Gal(b1-4)Glc
# Summary of the method: as §1
# [5] = target: Gal(b1-3)GalNAc(a1-3)[Fuc(a1-2)]Gal(b1-4)GlcNAc
# Summary of the method: as §1
# [6] = target: Gal(b1-3)GalNAc(b1-3)Gal(a1-4)Gal(b1-4)Glc
# Summary of the method: as §1
# [7] = target: Gal(b1-3)GalNAc(b1-4)Gal(b1-4)Glc
# Summary of the method: as §1
# [8] = target: Gal(b1-3)GalNAc(b1-4)[Neu5Ac(a2-3)]Gal(b1-4)Glc
# Summary of the method: as §1
# Gal(b1-3)GlcNAc = target: Gal(b1-3)GlcNAc
# Summary of the method: as §1
# [9] = target: Gal(b1-3)GlcNAc(a1-3)Gal(b1-4)GlcNAc
# Summary of the method: as §1
# [10] = target: Gal(b1-3)GlcNAc(a1-6)Gal(b1-4)GlcNAc
# Summary of the method: as §1
# [11] = target: Gal(b1-3)GlcNAc(b1-2)Man(a1-3)[Gal(b1-3)GlcNAc(b1-2)Man(a1-6)]Man(b1-4)GlcNAc(b1-4)GlcNAc
# Summary of the method: as §1
# [12] = target: Gal(b1-3)GlcNAc(b1-2)Man(a1-3)[Gal(b1-3)GlcNAc(b1-2)Man(a1-6)]Man(b1-4)GlcNAc(b1-4)[Fuc(a1-6)]GlcNAc
# Summary of the method: as §1
# [13] = target: Gal(b1-3)GlcNAc(b1-2)Man(a1-3)[GlcNAc(b1-4)][Gal(b1-3)GlcNAc(b1-2)Man(a1-6)]Man(b1-4)GlcNAc(b1-4)GlcNAc
# Summary of the method: as §1
# [14] = target: Gal(b1-3)GlcNAc(b1-2)[Gal(b1-3)GlcNAc(b1-6)]Man(a1-6)[Gal(b1-3)GlcNAc(b1-2)Man(a1-3)]Man(b1-4)GlcNAc(b1-4)GlcNAc
# Summary of the method: as §1
# [15] = target: Gal(b1-3)GlcNAc(b1-3)Gal(b1-3)GlcNAc
# Summary of the method: as §1
# [16] = target: Gal(b1-3)GlcNAc(b1-3)Gal(b1-4)Glc
# Summary of the method: as §1
# [17] = target: Gal(b1-3)GlcNAc(b1-3)Gal(b1-4)GlcNAc
# Summary of the method: as §1
# [18] = target: Gal(b1-3)GlcNAc(b1-3)Gal(b1-4)GlcNAc(b1-6)[Gal(b1-3)GlcNAc(b1-3)]Gal(b1-4)Glc
# Summary of the method: as §1
# [19] = target: Gal(b1-3)GlcNAc(b1-3)Gal(b1-4)[Fuc(a1-3)]GlcNAc(b1-6)[Gal(b1-3)GlcNAc(b1-3)]Gal(b1-4)Glc
# Summary of the method: as §1
# [20] = target: Gal(b1-3)GlcNAc(b1-3)GalNAc
# Summary of the method: as §1
# [21] = target: Gal(b1-3)GlcNAc(b1-6)Gal(b1-4)GlcNAc
# Summary of the method: as §1
# [22] = target: Gal(b1-3)GlcNAc(b1-6)GalNAc
# Summary of the method: as §1
binder,measurement,setting,value
B1,glycan array binding signal (z-score),Gal(a1-4)Gal(b1-4)GlcNAc,-0.276
same,glycan array binding signal (z-score),[1],-0.244
same,glycan array binding signal (z-score),[2],-0.304
same,glycan array binding signal (z-score),Gal(a1-4)GlcNAc,-0.271
same,glycan array binding signal (z-score),Gal(a1-6)Glc,-0.273
same,glycan array binding signal (z-score),Gal(b1-2)Gal,-0.276
same,glycan array binding signal (z-score),Gal(b1-3)Gal,-0.302
same,glycan array binding signal (z-score),Gal(b1-3)Gal(b1-4)GlcNAc,0.202
same,glycan array binding signal (z-score),[3],0.23
same,glycan array binding signal (z-score),Gal(b1-3)GalNAc,-0.261
same,glycan array binding signal (z-score),[4],3.55
same,glycan array binding signal (z-score),[5],2.92
same,glycan array binding signal (z-score),[6],-0.244
same,glycan array binding signal (z-score),[7],-0.272
same,glycan array binding signal (z-score),[8],-0.218
same,glycan array binding signal (z-score),Gal(b1-3)GlcNAc,-0.202
same,glycan array binding signal (z-score),[9],2.61
same,glycan array binding signal (z-score),[10],-0.294
same,glycan array binding signal (z-score),[11],0.06
same,glycan array binding signal (z-score),[12],-0.265
same,glycan array binding signal (z-score),[13],-0.226
same,glycan array binding signal (z-score),[14],-0.209
same,glycan array binding signal (z-score),[15],0.1
same,glycan array binding signal (z-score),[16],0.159
same,glycan array binding signal (z-score),[17],0.004
same,glycan array binding signal (z-score),[18],1
same,glycan array binding signal (z-score),[19],0.126
same,glycan array binding signal (z-score),[20],-0.25
same,glycan array binding signal (z-score),[21],-0.271
same,glycan array binding signal (z-score),[22],-0.262
